Reference: PMC4336329 (PLoS ONE, 2015)
The whole screen tested about 310,000 compounds, of which about 2,200 (0.71%) showed an effect of 50% or more. Effects have a minus sign here. This is one part of the list.

target: human ether-à-go-go-related gene (hERG) potassium channel (human, UniProt Q12809); experiment: primary screen, population patch clamp on CHO cells stably expressing hERG
Sequence (Q12809 whole entry, looked up): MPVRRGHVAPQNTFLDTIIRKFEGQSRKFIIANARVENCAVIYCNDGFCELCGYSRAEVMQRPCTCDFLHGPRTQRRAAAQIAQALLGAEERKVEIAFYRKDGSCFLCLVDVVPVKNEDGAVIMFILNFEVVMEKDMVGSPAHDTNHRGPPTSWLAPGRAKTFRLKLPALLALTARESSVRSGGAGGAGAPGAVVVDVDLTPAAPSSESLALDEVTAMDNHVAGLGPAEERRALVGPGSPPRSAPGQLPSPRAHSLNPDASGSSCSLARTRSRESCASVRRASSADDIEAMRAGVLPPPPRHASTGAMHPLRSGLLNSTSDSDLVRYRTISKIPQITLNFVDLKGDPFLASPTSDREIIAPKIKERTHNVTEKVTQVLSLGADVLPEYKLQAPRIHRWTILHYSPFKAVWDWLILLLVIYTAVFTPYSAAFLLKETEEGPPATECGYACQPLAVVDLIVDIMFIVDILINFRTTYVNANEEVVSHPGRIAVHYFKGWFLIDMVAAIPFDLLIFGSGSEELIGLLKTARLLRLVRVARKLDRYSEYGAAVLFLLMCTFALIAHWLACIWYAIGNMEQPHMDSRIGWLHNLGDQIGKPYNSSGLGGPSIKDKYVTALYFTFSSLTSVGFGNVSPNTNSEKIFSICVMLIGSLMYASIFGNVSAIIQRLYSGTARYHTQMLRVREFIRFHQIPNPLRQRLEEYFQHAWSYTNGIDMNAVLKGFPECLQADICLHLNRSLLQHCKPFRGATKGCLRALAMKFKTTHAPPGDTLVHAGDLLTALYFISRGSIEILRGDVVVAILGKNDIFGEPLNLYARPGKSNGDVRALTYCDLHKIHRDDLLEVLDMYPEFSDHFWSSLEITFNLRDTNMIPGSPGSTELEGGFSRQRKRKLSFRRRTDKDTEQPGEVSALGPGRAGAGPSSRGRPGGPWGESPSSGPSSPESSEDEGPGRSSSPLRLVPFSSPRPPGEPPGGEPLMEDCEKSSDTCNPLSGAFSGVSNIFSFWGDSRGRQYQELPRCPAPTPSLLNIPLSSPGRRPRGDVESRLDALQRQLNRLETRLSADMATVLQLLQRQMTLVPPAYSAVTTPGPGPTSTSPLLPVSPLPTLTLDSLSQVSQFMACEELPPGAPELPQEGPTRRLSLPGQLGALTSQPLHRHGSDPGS

Structure (SMILES) | hERG current change (%, negative = inhibition) at 1uM [%]
CC(C)(C)C1=CC(=O)C(N2CCOCC2)=CC1=O | 11.8
COc1ccc(OC)c2c1C(=O)c1ccccc1C2=O | 5.09
COc1ccc(-c2noc(CSc3nc(N)c(-c4ccccc4)c(=O)[nH]3)n2)cc1 | 7.08
CCC(C)/C(C)=N/NC(=O)CSc1nc2ccccc2[nH]1 (stereo not shown) | 5.26
CC(=O)Nc1ccc(S(=O)(=O)N=S(C)(C)=O)cc1 | 2.71
COc1ccc(S(=O)(=O)NN(C)C)cc1N(C)S(=O)(=O)c1ccc(Cl)cc1 | 4.08
CCOc1ccc(C(=O)NC(C(=O)NCC2CCCO2)C(C)C)cc1 (stereo not shown) | 10.1
COc1cccc(CN2CCNC(=O)C2CC(=O)N2CCCCO2)c1OC (stereo not shown) | 7.47
COc1ccc(/C=C2/SC(=S)N(CCCC(=O)Nc3ccccc3C(=O)O)C2=O)cc1 | 5.8
O=C(COC(=O)/C=C/c1ccc(OC(F)F)cc1)Nc1cccc(S(=O)(=O)N2CCCC2)c1 | 2.66
CN(CC(=O)Nc1cccc(F)c1)C(=O)C1CC(=O)N(Cc2ccco2)C1 (stereo not shown) | 3.91
CC(C)(OC(=O)c1ccc(C(F)(F)F)cc1)c1cc2ccccc2c(=O)o1 | 13.9
COc1cc(-c2[nH]ncc2CN(C)Cc2cc(C)[nH]n2)cc(OC)c1OC | 10.4
O=C(C1CCC(Cn2c(=O)[nH]c3ccccc3c2=O)CC1)N1CCN(c2ccccc2)CC1 (stereo not shown) | 12.3
COc1ccc(C(C)=O)cc1COc1ccc([N+](=O)[O-])c(C)c1 | 0.825
C=C(C(=O)Oc1ccccc1C(C)(C)C)c1ccccc1 | 4.97
CCOc1ccc(-c2nnc(SCC(=O)Nc3ccc4c(c3)c3ccccc3n4CC)n2N)cc1 | 17.7
N#Cc1ccc(C(=O)NC2=NCCS2)cc1 | 12.2
COc1cccc(C(C(=O)NC(C)(C)C)N(Cc2ccc(F)cc2)C(=O)CCC(=O)Nc2cc(C)on2)c1OC (stereo not shown) | 3.3
O=C1CSC(=S)N1/N=C/c1ccc2c(c1)OCCO2 | 17.8
COc1ccc(C(=O)NCC(C)NC(=O)c2ccc(OC)c(OC)c2)cc1OC (stereo not shown) | 6.07
COc1ccccc1NC(=O)c1ccc(NC(=O)Cc2n[nH]c(=O)c3ccccc23)cc1 | 0.173

Structure (SMILES) | hERG current change (%, negative = inhibition) at 1uM [%]
CCCS(=O)(=O)NCc1cn2cccc(C)c2n1 | 9.05
CCC(=O)Nc1cc(-c2nn(CC(=O)N3CCCCC3)c(=O)c3ccccc23)ccc1N1CCOCC1 | 8.9
O=C(Nc1ccc(S(=O)(=O)N2CCCCCC2)cc1)C1CCCO1 (stereo not shown) | -12.9
COc1cccc(-n2cnc3cccc(N)c32)c1 | 12.8
Fc1ccc(C(c2nnnn2C2CCCC2)N2CCc3ccccc32)cc1 (stereo not shown) | 6.53
C=CCN(CC=C)C(=S)NC(=O)c1ccc(C)c(Br)c1 | 15.9
O=C(C(Cc1ccccc1)N1C(=O)c2ccccc2C1=O)N1CCc2ccccc21 (stereo not shown) | 14.6
CCOCC(=O)Nc1ccc(S(=O)(=O)NCCc2ccccc2)cc1 | -0.569
CCOC(=O)C1CCN(c2ccc(C(=O)O)cc2[N+](=O)[O-])CC1 | 9.19
O=C(NC1CCCC1)c1ccc(CS(=O)(=O)Cc2ccccc2Cl)o1 | 7.8
COc1ccc(NC(=O)COC(=O)C(CC(C)C)N2C(=O)C3CC=CCC3C2=O)cc1Cl (stereo not shown) | 1.03
CC(C)(C)OC(=O)CC[C@@H](C(=O)N1CCN(C(=O)OC(C)(C)C)CC1)n1cc(C(CO)NC(=O)OC(C)(C)C)nn1 (stereo partly shown) | 14.2
O=C(COC(=O)c1ccco1)Nc1ccc([N+](=O)[O-])cc1Cl | 8.85
COc1ccc(OC)c(-n2c(-c3cccc(O)c3)n[nH]c2=S)c1 | 10.2
O=c1c(C(c2ccccc2)c2c(O)nc3n(c2=O)CCCS3)c(O)nc2n1CCCS2 | 13.9
Cc1ccc2nc(SCC(=O)c3cc(C)n(C)c3C)[nH]c2c1 | -7.16
CCOC(=O)C(=CNCC(=O)O)C(=O)OCC | -0.725
CCOc1ccc(CNC(=O)Cn2ccc3cc(S(=O)(=O)N4CCCCCC4)ccc32)cc1 | 7.48
O=[N+]([O-])c1ccccc1-c1ccc(C(=S)N2CCN(c3ccccc3)CC2)o1 | 9.31
CC1Cc2ccccc2N1C(=O)COC(=O)Cn1nnc(-c2ccccc2)n1 (stereo not shown) | 12.9
COc1ccc(C(=O)Nc2ccc3ccccc3n2)cc1OC | 15.5
C1CN(CCN2CCOCC2)CCN1 | 14.9

Structure (SMILES) | hERG current change (%, negative = inhibition) at 1uM [%]
CCOc1cc(CNCC(C)C)cc(Cl)c1OCc1ccccc1 | 11.5
CC(C)CC(=O)NC1(C(F)(F)F)C(=O)Nc2c1c(=O)[nH]c(=O)n2Cc1ccco1 (stereo not shown) | 15.6
Cc1c(C=O)c(=O)n(-c2ccccc2)n1C | 18.2
O=C(CCCCCn1c(=O)[nH]c2ccccc2c1=O)NCCc1c[nH]c2ccccc12 | -0.725
Cc1ccc(C(=O)c2c3ccc([N+](=O)[O-])cc3[n+]([O-])n2CCC[NH3+])cc1.O=C([O-])C(F)(F)F | -14.7
COC(=O)C1=C(c2ccc(F)cc2OCc2ccccc2)C[C@@H]2CC[C@H]1N2C(=O)NCc1ccc(C(C)(C)C)cc1 | 17.7
COc1ccc(NS(=O)(=O)c2ccc3[nH]c(=O)[nH]c3c2)cc1OC | 17.6
Cc1cc(N2C(=O)C3C4c5ccccc5C(c5ccccc54)C3C2=O)no1 (stereo not shown) | 9.61
COC(=O)C1=C(c2ccccc2OCc2ccccc2)C[C@@H]2CC[C@H]1N2C(=O)NCc1ccccc1 | -4.02
COC(=O)c1cc(NC(=O)c2ccc(Cn3cc(Cl)cn3)o2)cc(C(=O)OC)c1 | 8.09
COc1cccc(/C=N/NC(=O)CNC(=O)CCc2ccccc2)c1O | 24.6
Cc1ccc(C(=O)NCCCNC(=O)c2ccccn2)cc1 | 11.1
COc1ccccc1NC(=O)CSc1nnc(Cc2cc(=O)[nH]c(=O)[nH]2)n1-c1ccccc1 | 0.423
CC1CCCCN1CC(O)COCc1ccccc1.Cl (stereo not shown) | 13.8
CCCNC(=O)c1ccc(COc2cccc3ccccc23)o1 | 12.3
O=C(O/N=C/c1ccc2c(c1)OCO2)c1ccccc1Cl | 4.97
CCCN(CCC)S(=O)(=O)c1ccc(Cl)c([N+](=O)[O-])c1 | 12
COc1ccc(C(CNC(=O)c2ccc(N3CCCC3=O)cc2)N2CCCC2)cc1 (stereo not shown) | 12.1
COc1ccc(CCNS(=O)(=O)c2cc(C(=O)O)c(Cl)cc2Cl)cc1 | 7.89
C=CCN1C=C2C(=O)C(C)(OC(=O)c3cnc4ccccc4n3)C(=O)C=C2C=C1/C=C/COC (stereo not shown) | 7.46
c1ccc(OCc2nc(-c3ccccc3)no2)cc1 | 16.5
Cc1ccc(N(C(=O)CNC(=O)c2ccco2)C(C(=O)NC2CCCCC2)c2ccncc2)c(C)c1 (stereo not shown) | 9.97

Structure (SMILES) | hERG current change (%, negative = inhibition) at 1uM [%]
CCN1C(=O)CC(n2c(C)nc3ccccc32)C1=O (stereo not shown) | 11
COc1ccc(Cl)cc1NC(=S)N1CCN(c2ncccn2)CC1 | 13.9
CCN1CCN(c2nc3ccccc3n3cnnc23)CC1 | 4.56
CC1=C(C)C(=O)OC(C(C)C2CCC3C4CC=C5CC(OC6OC(COC7OC(CO)C(O)C(O)C7O)C(O)C(O)C6O)CC(O)C5(C)C4CCC23C)C1 (stereo not shown) | -7.4
C/C(=N\NC(=O)CNC(=O)c1ccccc1F)c1ccco1 | 8.73
CSc1nnc(CSc2cc(C)nc(N(C)C)n2)o1 | -5.44
CCOc1ccccc1Nc1nc(-c2sc(NC(=O)c3ccco3)nc2C)cs1 | 15.3
Cc1ccc(OCCn2nnc3ccccc32)cc1C | 8.27
COc1cc2c(cc1NS(=O)(=O)N1CCCCC1)oc1ccccc12 | -1.53
O=C(COc1ccc2ccccc2c1)N1CCN(c2ccccc2O)CC1 | 11
O=C(CCc1ccc(S(=O)(=O)N2CCOCC2)cc1)Nc1ccc2ccccc2c1 | -3.84
CCc1ccc2[nH]c(C(=O)Nc3ccc(F)cc3Br)cc2c1 | 18.5
O=C(c1cc(COc2c(F)cccc2F)on1)N1C[C@H]2CC[C@H]1C2 | -3.54
COc1cccc(/C=N/n2cnc3cc(C)c(C)cc32)c1OC | 18.5
CC1=C(C#N)C(c2cccnc2)C2=C(CCCC2=O)N1 (stereo not shown) | 2.43
COc1ccc(OC)c(Nc2nc3nonc3nc2N2CCCC(C)C2)c1 (stereo not shown) | 12.8
O=C(CSc1nc(C2CCCCC2)nc2ccccc12)NCc1ccc2c(c1)OCO2 | 13.9
COc1ccc(C(=O)C2CCCN(Cc3ccccn3)C2)c(OC)c1 (stereo not shown) | -3.83
O=c1ccc(NS(=O)(=O)c2ccccc2Cl)cn1Cc1ccc(Cl)c(Cl)c1 | 1.92
